{"source": "PubChem BioAssay (NCATS)", "note": "“And” between values parts separate entries of the source, which are not always exact repeats. Identical values can stand only once. This list was built around the results that the source calls inconclusive (neither active nor inactive); the mix of calls is not that of the screen. Potencies of inconclusive entries are doubtful fits and often do not repeat. The source made the active and inactive calls. Calls follow the shape of the dose curve; as a rule, active = well fitted cell-killing curve with a large enough effect; inconclusive = small, poorly fitted or top-dose-only effect; inactive = no such curve, though single readings can be large or run the other way. Potency is read from the fitted curve at half-maximal effect; tags tell the direction and shape of the fitted curve."}
{"test": "qHTS of pediatric cancer cell lines to identify multiple opportunities for drug repurposing: Confirmatory screen for BT-37 cells (AID 1347117); also: nearly all actives have a fitted effect of over 55% in size", "details": "BT-37 pediatric cancer cells, viability; series mostly up to 45.9 µM; activity change, negative = cytotoxic: at the top concentration", "text": "Drug repurposing or repositioning has been offered as a strategy for drug development in oncology programs. This approach has special potential for childhood cancers and other rare or orphan diseases, where the expected return on new drug development has been a disincentive to pharmaceuticals.\nIn this project we exploit the poly-pharmacology of drugs to discover new indications via phenotypic screening of a panel of 19 well-characterized cell lines derived from solid tumors seen in children and adolescents. The goal is to identify approved drugs with previously unrecognized anticancer properties that has the potential to reveal new mechanisms and biological processes involved in carcinogenesis or drug resistance. We employed a titration-based paradigm (quantitative high-throughput screening or qHTS), where all compounds were tested at multiple concentrations for their effect on cell viability. Concentration-response curves (CRCs) were derived directly from the primary screen, and both potency and efficacy values were used to identify compounds with robust bioactivity profiles. We screened the NIH Chemical Genomics Center (NCGC) Pharmaceutical Collection (NPC) and Mechanism Interrogation Plate (MIPE) small molecule collections of approved and investigational compounds against these cell lines; and measured metabolically active cells after 48 hours of compound treatment as a proxy for cell viability.\nAssay Submitter: Nathalia J. Martinez, National Center for Advancing Translational Sciences, National Institutes of Health, Rockville, MD, USA; email: natalia.martinez@nih.gov\n[1] Shen, M et al. Quantitative high-throughput phenotypic screening of pediatric cancer cell lines identifies multiple opportunities for drug repurposing. Oncotarget 2017 Dec 19;9(4):4758-4772. PMID 29435139.\nThe cells were obtained from University of North Carolina (UNC), Pediatric Preclinical Testing Program (PPT), and Coriell Institute (CI).\nqHTS cell viability assay:\nCells were assayed in growth media at a density of 500-1,000 cells/well. Five microliters of cells were dispensed into 1,536-well, white, solid-bottom, TC-treated plates (Greiner Bio One) using a multidrop dispenser and incubated at 37 degrees C, 5% CO2, under a humidified atmosphere for 5 hours. Twenty-three nanoliters of compounds and controls (neutral control DMSO or positive control bortezomib at final concentration of 2.3 µM) were subsequently transferred by Kalypsys pintool. For primary screens, the MIPE collection was tested at 11-point dilutions (final concentrations range from 0.78 nM to 46 µM) and the NPC collection at 8-point dilutions (final concentrations range from 0.59 nM to 46 µM). Compounds tested in follow-up screens were assayed at 11-point dilutions. Cells were incubated for 48 hours, followed by addition of 3 µL of CellTiter-Glo (Promega). After a 15 min incubation at room temperature, samples were analyzed for luminescence intensity using a ViewLux High-throughput CCD imager equipped with clear filters."}
{"smiles": "CC(=O)OCC(=O)[C@@]12OC(C)(C)O[C@@H]1C[C@H]1[C@@H]3C[C@H](F)C4=CC(=O)C=C[C@]4(C)[C@@]3(F)[C@@H](O)C[C@@]12C", "Potency": "inconclusive: 36.9 µM [cytotoxic, single point]"}
{"smiles": "CC(C(=O)O)c1ccc2c(c1)CC(=O)c1ccccc1S2", "note": "(stereo not given)", "Potency": "inconclusive: 23.3 µM [cytotoxic, partial curve, poor fit]"}
{"smiles": "OC[C@H]1O[C@@H](n2cnc3c(=S)nc[nH]c32)[C@H](O)[C@@H]1O", "Potency": "active: 2.93 µM"}
{"smiles": "CC(=O)Oc1ccc(C(c2ccc(OC(C)=O)cc2)c2ccccn2)cc1", "Potency": "inconclusive: 0.369 µM [cytotoxic, full curve]"}
{"smiles": "CCN1CCN(Cc2ccc(-c3cc4c(N[C@H](C)c5ccccc5)ncnc4[nH]3)cc2)CC1", "Potency": "active: 2.69 µM"}
{"smiles": "O=C(c1ccc(OCCN2CCCCC2)cc1)c1c(-c2ccc(O)cc2)sc2cc(O)ccc12", "Potency": "inconclusive: 26.1 µM [cytotoxic, single point]"}
{"smiles": "CC[C@@]1(O)C(=O)OCc2c1cc1n(c2=O)Cc2cc3c(CN(C)C)c(O)ccc3nc2-1", "Potency": "active: 0.117 µM"}
{"smiles": "CC(C)(C(=O)c1cccnc1)c1cccnc1", "Potency": "inconclusive: 36.9 µM [cytotoxic, single point]"}
{"smiles": "Cc1cc(CS(=O)(=O)c2ccccc2)cc(OCc2ccc(CN3CCC[C@H]3CO)cc2)c1", "Potency": "inconclusive: 23.3 µM [cytotoxic, single point]"}
{"smiles": "Nc1[nH]nc2nnc(-c3c(-c4ccccc4)nn4ccccc34)cc12", "Potency": "inconclusive: 29.3 µM [cytotoxic, single point]"}
{"smiles": "O=C1Nc2ccc(I)cc2C1=Cc1cc(Br)c(O)c(Br)c1", "activity change, negative = cytotoxic": "inactive: -19.9%"}
{"smiles": "N=C(N)c1ccc(OCCCCCOc2ccc(C(=N)N)cc2)cc1", "Potency": "inconclusive: 14.7 µM [cytotoxic, partial curve]"}
{"smiles": "Nc1ccn([C@@H]2O[C@H](CO)[C@@H](O)C2O)c(=O)n1", "note": "(stereo not given in full)", "Potency": "inconclusive: 16.5 µM [cytotoxic, partial curve, poor fit]"}
{"smiles": "CC[C@H]1CN2CCc3cc(OC)c(OC)cc3[C@H]2C[C@@H]1C[C@@H]1NCCc2cc(OC)c(OC)cc21", "Potency": "active: 0.293 µM"}
{"smiles": "CC#C[C@]1(O)CC[C@H]2[C@@H]3CCC4=CC(=O)CCC4=C3[C@@H](c3ccc(N(C)C)cc3)C[C@@]21C", "Potency": "inconclusive: 26.1 µM [cytotoxic, single point]"}
{"smiles": "CNC(=O)c1ccc(N2C(=S)N(c3cnc(C#N)c(C(F)(F)F)c3)C(=O)C23CCC3)cc1F", "activity change, negative = cytotoxic": "inactive: 4.38%"}
{"smiles": "NC(=O)NO", "activity change, negative = cytotoxic": "inactive: -8.76%"}
{"smiles": "CC1(C)O[C@@H]2C[C@H]3[C@@H]4C[C@H](F)C5=CC(=O)CC[C@]5(C)[C@H]4[C@@H](O)C[C@]3(C)[C@]2(C(=O)CO)O1", "activity change, negative = cytotoxic": "inactive: -8.21%"}
{"smiles": "CC1=C(CC(=O)O)c2cc(F)ccc2C1=Cc1ccc(S(C)=O)cc1", "note": "(stereo not given)", "activity change, negative = cytotoxic": "inactive: -2.01%"}
{"smiles": "CN[C@H]1CCc2cc(OC)c(OC)c(OC)c2-c2ccc(OC)c(=O)cc21", "Potency": "inconclusive: 0.104 µM [cytotoxic, full curve, poor fit]"}
{"smiles": "COC(=O)c1ccc2c(C(=Nc3ccc(N(C)C(=O)CN4CCN(C)CC4)cc3)c3ccccc3)c(O)[nH]c2c1", "Potency": "inconclusive: 16.5 µM [cytotoxic, partial curve, poor fit]"}
{"smiles": "C#CCC(Cc1cnc2nc(N)nc(N)c2n1)c1ccc(C(=O)N[C@@H](CCC(=O)O)C(=O)O)cc1", "note": "(stereo not given in full)", "Potency": "inconclusive: 0.0737 µM [cytotoxic, full curve]"}
{"smiles": "COc1cc(C=CC(=O)CC(=O)C=Cc2ccc(O)c(OC)c2)ccc1O", "Potency": "active: 30.2 µM"}
{"smiles": "CC(=O)O[C@]1(C(C)=O)CC[C@H]2[C@@H]3C[C@H](C)C4=CC(=O)CC[C@]4(C)[C@H]3CC[C@@]21C", "Potency": "inconclusive: 32.9 µM [cytotoxic, single point]"}
{"smiles": "CC1C(=O)OC2C(O)C34C5CC(C(C)(C)C)C36C(OC(=O)C6O)OC4(C(=O)O5)C12O", "note": "(stereo not given)", "activity change, negative = cytotoxic": "inactive: -10.8%"}
{"smiles": "CC1CCc2c(N3CCC(O)CC3)c(F)cc3c(=O)c(C(=O)O)cn1c23", "note": "(stereo not given)", "Potency": "inconclusive: 20.8 µM [cytotoxic, partial curve]"}
{"smiles": "O=C(c1cc(Cc2n[nH]c(=O)c3ccccc23)ccc1F)N1CCN(C(=O)C2CC2)CC1", "Potency": "inconclusive: 10.4 µM [cytotoxic, partial curve, poor fit]"}
{"smiles": "CC(=O)OCC(=O)[C@@]1(O)[C@H](C)C[C@H]2[C@@H]3CCC4=CC(=O)C=C[C@]4(C)[C@@]3(F)[C@@H](O)C[C@@]21C", "Potency": "inconclusive: 29.3 µM [cytotoxic, single point]"}
{"smiles": "CCCCC(=O)O[C@]1(C(=O)CO)CC[C@H]2[C@@H]3CCC4=CC(=O)CC[C@]4(C)[C@H]3[C@@H](O)C[C@@]21C", "Potency": "inconclusive: 32.9 µM [cytotoxic, single point]"}
{"smiles": "CN(C)CCN(C)C(=O)c1ccc(NC(=O)Nc2ccc(-c3nc(N4CCOCC4)c4ccn(CC(F)(F)F)c4n3)cc2)cc1", "Potency": "inconclusive: 2.33 µM [cytotoxic, partial curve, poor fit]"}
{"smiles": "O=C(O)c1ccc(Nc2ncc3c(n2)-c2ccc(Cl)cc2C(c2c(F)cccc2F)=NC3)cc1", "Potency": "inconclusive: 3.69 µM [cytotoxic, full curve]"}
{"smiles": "C[C@@H]1C[C@H]2[C@@H]3CCC4=CC(=O)C=C[C@]4(C)[C@@]3(F)[C@@H](O)C[C@]2(C)[C@@]1(O)C(=O)CO", "activity change, negative = cytotoxic": "inactive: -24.3%"}
{"smiles": "Oc1cc(-c2nc(-c3ccccc3)[nH]c2-c2ccncc2)ccc1Cl", "Potency": "active: 2.61 µM"}
{"smiles": "C[N+](C)([O-])CCNc1ccc(NCC[N+](C)(C)[O-])c2c1C(=O)c1c(O)ccc(O)c1C2=O", "Potency": "inconclusive: 11.7 µM [cytotoxic, partial curve]"}
{"smiles": "CCN(CC)CCCC(C)Nc1ccnc2cc(Cl)ccc12", "note": "(stereo not given)", "activity change, negative = cytotoxic": "inactive: -19%"}
{"smiles": "COc1cc2c(Nc3ccc(Br)cc3F)ncnc2cc1OCC1CCN(C)CC1", "activity change, negative = cytotoxic": "inactive: 1.58%"}
{"smiles": "CC[C@]1(O)C[C@@H]2CN(CCc3c([nH]c4ccccc34)[C@@](C(=O)OC)(c3cc4c(cc3OC)N(C)[C@H]3[C@@](O)(C(=O)OC)[C@H](OC(C)=O)[C@]5(CC)C=CCN6CC[C@]43[C@@H]65)C2)C1", "Potency": "active: 737 nM and active: 1.17 µM"}
{"smiles": "CCc1cnn2c(NCc3ccc[n+]([O-])c3)cc(N3CCCC[C@@H]3CCO)nc12", "Potency": "inconclusive: 7.37 µM [cytotoxic, partial curve, poor fit]"}
{"smiles": "CCC(C)(C)C(=O)O[C@H]1C[C@@H](C)C=C2C=C[C@H](C)[C@H](CC[C@@H]3C[C@@H](O)CC(=O)O3)[C@H]21", "Potency": "inconclusive: 4.65 µM [cytotoxic, full curve]"}
{"smiles": "Nc1nc(N)c2nc(CNc3ccc(C(=O)NC(CCC(=O)O)C(=O)O)cc3)cnc2n1", "note": "(stereo not given)", "Potency": "inconclusive: 0.928 µM [cytotoxic, full curve]"}
